Measured values taken from the supplement of paper PMC10126150.
Sequences with one replicate were seen in a single cluster, so their values are uncertain.
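Also: ATP exposure 15 min at 22 °C before imaging.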

Each sequence was assayed on ATP (assay: switch fluorescence ratio, 500 uM ATP over buffer (Cy3 cluster intensity, sum of 5 cycles each) (fold (ratio)); higher = stronger signal-on switching upon ATP binding; sequences stand for … in TCGTCGGCAGCGTCAGATGTGTATAAGAGACAGTTTTTTTTTTTTTTTTTTTTTTTTT…TC). Details: aptamer strand: ATP DNA aptamer (quencher-CACCTGGGGGAGTATTGCGGAGGAAGG + anchor), 100 nM annealed; ATP concentration: 500 uM; one replicate.
In short: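 The quencher-labelled ATP aptamer, at 100 nM, was annealed to Cy3-labelled switching-strand clusters on a modified Illumina MiSeq flow-cell. The clusters were imaged in selection buffer, then after 15 min with 500 uM ATP at 22 °C, and this buffer/ATP cycle ran five times with NaOH stripping and re-annealing between runs. Per-cluster fluorescence ratios, summed target-cycle over summed buffer-cycle Cy3 intensity, were averaged per switch-domain sequence. Clusters outside 100-1000 RFU were excluded.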
For ACGTTGTTGG, the switch fluorescence ratio was 1.
Work on CTCGTAGGTT yielded a switch fluorescence ratio of 0.971.
Work on GATCTAAGT yielded a switch fluorescence ratio of 0.972.
CTTAATAAAA gave a switch fluorescence ratio of 1.03.
GGGTAATCTG gave a switch fluorescence ratio of 0.992.
GCGTAAAGGC showed a switch fluorescence ratio of 0.984.
GGGTGAGGAA was tested, and the switch fluorescence ratio was 1.02.
AACCAACCTA showed a switch fluorescence ratio of 1.1.
CCGCGCGGGG showed a switch fluorescence ratio of 1.01.
For TTCTGTTAGG, the switch fluorescence ratio was 0.96.
With TGGTGGCGCC the switch fluorescence ratio was 0.984.
Sequence TGAATTACAT has a switch fluorescence ratio of 0.999.
In the case of CCAGTTAATG, the switch fluorescence ratio was 0.984.
For TTCGGACTCC, the switch fluorescence ratio was 1.28.
In the case of TGGGTGACC, the switch fluorescence ratio was 0.99.
TGTGTCAGTT gave a switch fluorescence ratio of 1.
With CGCTGGCGAT the switch fluorescence ratio was 1.
In the case of AAAGTGCGCT, the switch fluorescence ratio was 1.02.
With TCTGCGTTGG the switch fluorescence ratio was 1.15.
CCATTCTGGT was tested, and the switch fluorescence ratio was 0.967.
In the case of CGGTACGTGG, the switch fluorescence ratio was 0.99.
GATAACAAAC was tested, and the switch fluorescence ratio was 1.45.
In the case of GATGGGGACT, the switch fluorescence ratio was 0.996.
CTTGTGGGTA gave a switch fluorescence ratio of 0.968.
For GCGCTATACA, the switch fluorescence ratio was 3.64.
CAGTACCTA gave a switch fluorescence ratio of 1.03.
AGCGACTTGA was tested, and the switch fluorescence ratio was 0.982.
Sequence GAGCCCGTGA has a switch fluorescence ratio of 1.06.
TTCTTCGGG showed a switch fluorescence ratio of 0.999.
Sequence CCGCCGGTTT has a switch fluorescence ratio of 1.24.
With AGCTTAGAGT the switch fluorescence ratio was 1.
CATTCACCT was tested, and the switch fluorescence ratio was 1.18.
TGTTTGTCAT gave a switch fluorescence ratio of 0.978.
GGCTGTGGTC gave a switch fluorescence ratio of 0.983.
Sequence CGTCCTTTCT has a switch fluorescence ratio of 1.07.
In the case of CTAACAGTAT, the switch fluorescence ratio was 1.01.
Sequence GTGGTCTTCC has a switch fluorescence ratio of 1.14.
CCCTTTACAA was tested, and the switch fluorescence ratio was 1.05.
With CGCTAGCGCC the switch fluorescence ratio was 1.03.
In the case of AATATGTGTC, the switch fluorescence ratio was 1.06.
TGTTTAACTG showed a switch fluorescence ratio of 0.96.
ATGTACACGC gave a switch fluorescence ratio of 1.12.
Work on ATTTCGTACA yielded a switch fluorescence ratio of 0.993.
In the case of GTCGCGTGAG, the switch fluorescence ratio was 1.01.
With GGCATCCTTT the switch fluorescence ratio was 1.04.
In the case of TGAGGAGGTC, the switch fluorescence ratio was 0.97.
For TGTCCAGCCC, the switch fluorescence ratio was 1.
TTGCTTCCAT showed a switch fluorescence ratio of 1.03.
With GCCCGGCGTC the switch fluorescence ratio was 0.972.
Sequence GGTTCAATGA has a switch fluorescence ratio of 0.923.
Work on TCTCATTGTA yielded a switch fluorescence ratio of 0.991.
TTAGTGCCC was tested, and the switch fluorescence ratio was 1.08.
GGGCCTCGCG gave a switch fluorescence ratio of 1.04.
With TCCCCGGCAC the switch fluorescence ratio was 1.02.
CATATCCTTT showed a switch fluorescence ratio of 1.04.
In the case of TATTCTTGTT, the switch fluorescence ratio was 0.95.
With ATATCCATTT the switch fluorescence ratio was 0.965.
Work on CCGGACTTAG yielded a switch fluorescence ratio of 1.06.
With CCAAATCAGT the switch fluorescence ratio was 1.03.
For TACTAGCTGA, the switch fluorescence ratio was 1.01.
CCAGTGCGCG showed a switch fluorescence ratio of 0.96.
CGTCTGGCTT showed a switch fluorescence ratio of 1.14.
Sequence TACACATTCA has a switch fluorescence ratio of 1.08.
TAATGGCAAG gave a switch fluorescence ratio of 1.07.
Sequence GCTGCAGGAA has a switch fluorescence ratio of 1.01.
With AAGTGCTCA the switch fluorescence ratio was 1.01.
CTCTCCGGCT gave a switch fluorescence ratio of 1.15.
Work on GGTAAAACTT yielded a switch fluorescence ratio of 1.04.
Work on TGTGGACTTG yielded a switch fluorescence ratio of 0.936.
CACTTGGGGC showed a switch fluorescence ratio of 1.04.
Work on CCCCACCGAT yielded a switch fluorescence ratio of 1.11.
GGGCACGCGG showed a switch fluorescence ratio of 0.966.
Sequence TGGCGATCCG has a switch fluorescence ratio of 1.03.
Work on ATGCGTTGGT yielded a switch fluorescence ratio of 1.
TGATTAAACC gave a switch fluorescence ratio of 1.01.
TCAGGGAT gave a switch fluorescence ratio of 1.21.
AGGGGAGCGG showed a switch fluorescence ratio of 1.04.
TTGTTTGCTA was tested, and the switch fluorescence ratio was 1.04.
GGCTAATCTT gave a switch fluorescence ratio of 0.991.
ATTGTAGGTG gave a switch fluorescence ratio of 1.06.
In the case of TGCAATATTA, the switch fluorescence ratio was 1.38.
Work on TGATTACTAA yielded a switch fluorescence ratio of 1.06.
TAATAAAAAC showed a switch fluorescence ratio of 0.996.
In the case of AATGACGCGT, the switch fluorescence ratio was 0.982.
TAGTGAGCC gave a switch fluorescence ratio of 0.971.
Sequence TGTCCAGAGT has a switch fluorescence ratio of 1.04.
CACCTCGCCC showed a switch fluorescence ratio of 1.11.
For TACGTGGCAG, the switch fluorescence ratio was 0.996.
With ATAGGTCTGA the switch fluorescence ratio was 1.03.
In the case of AGGATTCAGG, the switch fluorescence ratio was 0.988.
GGCAAACTAC gave a switch fluorescence ratio of 1.37.
Work on ATCCACGGCG yielded a switch fluorescence ratio of 1.05.
For TATGTCTGCA, the switch fluorescence ratio was 1.02.
Sequence CAAAAGGGCT has a switch fluorescence ratio of 0.996.
Sequence CAGCGGCCGC has a switch fluorescence ratio of 0.985.
TATTCGGCAT showed a switch fluorescence ratio of 1.01.
TTACGTAGTA gave a switch fluorescence ratio of 0.973.
With GGGAACTTTA the switch fluorescence ratio was 1.02.
ACACACCCTG showed a switch fluorescence ratio of 1.51.
Work on GCCGACACTA yielded a switch fluorescence ratio of 1.13.
With TATCGTGGCG the switch fluorescence ratio was 0.973.
Sequence GATTTGAGAG has a switch fluorescence ratio of 0.991.
Work on TACAACGAAA yielded a switch fluorescence ratio of 1.
With TATCCTTCCA the switch fluorescence ratio was 1.35.
Work on GACTATTGAT yielded a switch fluorescence ratio of 1.
TTGGTATCTG was tested, and the switch fluorescence ratio was 0.935.
For TACTTACCA, the switch fluorescence ratio was 1.24.
Sequence CCCCTTATCG has a switch fluorescence ratio of 1.02.
With CGGAAGAAAC the switch fluorescence ratio was 0.983.
TTCAGTTTAT showed a switch fluorescence ratio of 1.07.
Sequence TCAAACCGTT has a switch fluorescence ratio of 1.04.
Work on GCCTTCCCCA yielded a switch fluorescence ratio of 2.78.
With CCAACAGTCG the switch fluorescence ratio was 0.979.
CGAACGTGTG showed a switch fluorescence ratio of 0.946.
Sequence GGCTGAGGCT has a switch fluorescence ratio of 0.998.
TTCGAGGGAG gave a switch fluorescence ratio of 1.16.
Sequence CTACCCTTGC has a switch fluorescence ratio of 1.62.
TAACGAGCCT showed a switch fluorescence ratio of 1.07.
Sequence GTTGGGGAG has a switch fluorescence ratio of 1.02.
For AATATTGGGT, the switch fluorescence ratio was 1.06.
In the case of TTCGGTTAAT, the switch fluorescence ratio was 1.02.
TATGTTAAG showed a switch fluorescence ratio of 0.987.
ATTAAACCAT showed a switch fluorescence ratio of 1.02.
With GCTTCATTGC the switch fluorescence ratio was 1.
GTACCATCAT was tested, and the switch fluorescence ratio was 1.02.
With CCTAACGTGA the switch fluorescence ratio was 2.32.
In the case of CAACTAATTC, the switch fluorescence ratio was 0.975.
AAGTGTTCTG showed a switch fluorescence ratio of 0.993.
In the case of TTGATCTTCT, the switch fluorescence ratio was 0.968.
GTTCCCGTGT showed a switch fluorescence ratio of 1.01.
For ATCCACGCTT, the switch fluorescence ratio was 1.06.
GGGGAGGCTA was tested, and the switch fluorescence ratio was 1.01.
Sequence ACATTTATGA has a switch fluorescence ratio of 0.994.
In the case of ATAGTAGTTT, the switch fluorescence ratio was 0.954.
In the case of TGGAGAGCAC, the switch fluorescence ratio was 1.02.
For TATTTGCAC, the switch fluorescence ratio was 0.988.
With CCAGAGCTGT the switch fluorescence ratio was 2.91.
With TACGTTAATC the switch fluorescence ratio was 1.28.
Sequence ATACATTTAA has a switch fluorescence ratio of 1.
AAAAGTTACT showed a switch fluorescence ratio of 0.995.
TTTGTCAAGC showed a switch fluorescence ratio of 1.09.
TTTAAAAGCC gave a switch fluorescence ratio of 1.03.
In the case of TTTGCTACGA, the switch fluorescence ratio was 1.
In the case of CATTATAAA, the switch fluorescence ratio was 0.938.
Sequence AGATTCCAGA has a switch fluorescence ratio of 0.962.
For CGGACGTTGT, the switch fluorescence ratio was 0.972.
For TGTAGGGTCG, the switch fluorescence ratio was 0.973.
Sequence TCCAGCGACG has a switch fluorescence ratio of 1.03.
In the case of CTCACTTGAG, the switch fluorescence ratio was 0.997.
Sequence AGAATACCGA has a switch fluorescence ratio of 1.16.
GAAACAAAGA showed a switch fluorescence ratio of 1.03.
In the case of TCAAGATAAG, the switch fluorescence ratio was 1.02.
GTCAGCAGTG showed a switch fluorescence ratio of 1.02.
TCGCTTGGGC showed a switch fluorescence ratio of 0.967.
CACGTAGGTG gave a switch fluorescence ratio of 1.16.
Sequence GGAGGGGTCT has a switch fluorescence ratio of 1.01.
TAGACCACGA showed a switch fluorescence ratio of 1.
